# Some of the results follow.
# Columns and labels:
# HSkMC = human skeletal muscle cells; assay: cytotoxicity call (relative viability < 0.9); conditions: 10 µM
# HepG2 = assay: cytotoxicity call (relative viability < 0.9); conditions: 10 µM
# S. aureus RN4220 = assay: growth inhibition call (relative growth <= 0.2); conditions: 50 µM
Compound,cytotoxicity call (HSkMC),cytotoxicity call (HepG2),growth inhibition call (S. aureus RN4220)
C[C@H]1CN([C@@H](C)CO)C(=O)c2cc(NS(=O)(=O)c3cn(C)cn3)ccc2O[C@@H]1CN(C)CC1CC1,inactive,inactive,inactive
CC(C)NC(=O)Nc1ccc2c(c1)C(=O)N([C@H](C)CO)C[C@@H](C)[C@@H](CN(C)Cc1ccc(C(F)(F)F)cc1)OCCCC[C@H](C)O2,inactive,inactive,inactive
Cc1cccnc1[C@@H](NC(=O)C1CCN(Cc2ccc(Cl)c(Cl)c2)CC1)c1ccc(Cl)cc1,inactive,active,inactive
CN(C)CCCNC(=O)C[C@H]1CC[C@@H]2[C@H](COC[C@@H](O)CN2S(=O)(=O)c2ccc(Cl)cc2)O1,inactive,inactive,inactive
CNC[C@H]1OCCCC[C@H](C)Oc2ccc(NC(=O)CCCN(C)C)cc2C(=O)N([C@@H](C)CO)C[C@@H]1C,inactive,inactive,inactive
COc1ccc(NC(=O)N(C)C[C@@H]2OCCCC[C@H](C)Oc3ccc(NC(=O)CCC(F)(F)F)cc3C(=O)N([C@H](C)CO)C[C@@H]2C)cc1,inactive,inactive,inactive
C[C@H](CO)N1C[C@H](C)[C@@H](CN(C)C(=O)Nc2ccc(C(F)(F)F)cc2)Oc2ccc(NS(C)(=O)=O)cc2CC1=O,inactive,inactive,inactive
C[C@H](CO)N1C[C@H](C)[C@H](CN(C)C(=O)c2ccccc2)Oc2cc(C#C[C@@H](C)O)ccc2S1(=O)=O,inactive,inactive,inactive
O=[Si](O)O,inactive,inactive,inactive
Cc1ccc(S(=O)(=O)Nc2ccc3c(c2)CC(=O)N([C@@H](C)CO)C[C@H](C)[C@@H](CN(C)Cc2ccc(Oc4ccccc4)cc2)O3)cc1,active,active,inactive
C[C@@H]1CN([C@@H](C)CO)C(=O)c2cccc(NS(C)(=O)=O)c2O[C@@H]1CN(C)S(=O)(=O)c1ccccc1,inactive,inactive,inactive
C[C@@H]1CN([C@@H](C)CO)C(=O)Cc2cc(NC(=O)Cc3ccccc3)ccc2O[C@H]1CN(C)S(=O)(=O)c1ccccc1,inactive,inactive,inactive
COc1ccc(NC(=O)N(C)C[C@@H]2OCCCC[C@@H](C)Oc3ccc(NC(=O)Cc4ccccc4)cc3C(=O)N([C@H](C)CO)C[C@@H]2C)cc1,inactive,inactive,inactive
C[C@@H]1CN([C@@H](C)CO)C(=O)c2cc(NC(=O)CCC(F)(F)F)ccc2O[C@@H](C)CCCCO[C@H]1CN(C)Cc1ccc(C(F)(F)F)cc1,inactive,inactive,inactive
C[C@@H]1CCCCO[C@@H](CN(C)C(=O)Nc2cccc3ccccc23)[C@H](C)CN([C@H](C)CO)C(=O)c2cc(NS(C)(=O)=O)ccc2O1,inactive,inactive,inactive
COc1ccc(S(=O)(=O)N(C)C[C@H]2Oc3ccc(NS(=O)(=O)c4cccs4)cc3C(=O)N([C@@H](C)CO)C[C@H]2C)cc1,inactive,inactive,inactive
CC(C)NC(=O)N(C)C[C@@H]1Oc2ccc(NS(=O)(=O)c3ccc(F)cc3)cc2CC(=O)N([C@H](C)CO)C[C@H]1C,inactive,inactive,inactive
CS(=O)(=O)N1CCN(Cc2cc3nc(-c4cccc5n[nH]cc45)nc(N4CCOCC4)c3s2)CC1,active,active,inactive
C[C@H]1CN([C@@H](C)CO)C(=O)Cc2cc(NC(=O)C3CCCCC3)ccc2O[C@H]1CN(C)S(=O)(=O)c1cn(C)cn1,inactive,inactive,inactive
COc1ccc(S(=O)(=O)Nc2ccc3c(c2)C(=O)N([C@@H](C)CO)C[C@@H](C)[C@H](CN(C)Cc2ccc(C(=O)O)cc2)OCCCC[C@@H](C)O3)cc1,inactive,inactive,inactive
Cc1noc(C)c1NC(=O)Nc1cccc2c1O[C@@H](CN(C)S(=O)(=O)c1ccccc1)[C@@H](C)CN([C@H](C)CO)C2=O,inactive,inactive,inactive
COc1ccc(S(=O)(=O)Nc2ccc3c(c2)C(=O)N([C@H](C)CO)C[C@H](C)[C@@H](CN(C)Cc2ccc(C(F)(F)F)cc2)OCCCC[C@H](C)O3)cc1,inactive,inactive,inactive
CCC(=O)N[C@H]1CC[C@H](CC(=O)OC)O[C@@H]1CO,inactive,inactive,inactive
Cc1noc(C)c1S(=O)(=O)Nc1ccc2c(c1)C(=O)N([C@H](C)CO)C[C@H](C)[C@H](CN(C)S(=O)(=O)c1cn(C)cn1)OCCCC[C@@H](C)O2,inactive,inactive,inactive
Cc1cc(C)c2nnc(SCC(=O)O)n2n1,inactive,inactive,inactive
C[C@@H]1CN([C@H](C)CO)C(=O)c2cc(NS(=O)(=O)c3ccc(F)cc3)ccc2O[C@@H](C)CCCCO[C@H]1CN(C)C(=O)Nc1ccc2c(c1)OCO2,inactive,inactive,inactive

Compound,cytotoxicity call (HSkMC),cytotoxicity call (HepG2),growth inhibition call (S. aureus RN4220)
C[C@H](CO)N1C[C@H](C)[C@H](CN(C)Cc2ccc(-c3ccccc3)cc2)Oc2ccc(NC(=O)Nc3ccc(C(F)(F)F)cc3)cc2C1=O,active,active,inactive
COc1ccc(S(=O)(=O)N(C)C[C@@H]2Oc3ccc(NC(=O)c4ccncc4)cc3C(=O)N([C@@H](C)CO)C[C@@H]2C)cc1,inactive,inactive,inactive
CCCN(C)C[C@H]1Oc2cc(C#Cc3ccc(OC)cc3)ccc2S(=O)(=O)N([C@H](C)CO)C[C@H]1C,inactive,inactive,inactive
CCc1nc2ccc(C(=O)N3CCN(S(=O)(=O)CC)CC3)cn2c1N(CC)C(=O)NCCc1ccccc1,inactive,inactive,inactive
C[C@H](CO)N1C[C@H](C)[C@H](CN(C)Cc2ccncc2)Oc2ccc(NC(=O)Nc3ccc(C(F)(F)F)cc3)cc2CC1=O,inactive,active,inactive
COc1ccc(NC(=O)N(C)C[C@@H]2OCCCC[C@H](C)Oc3ccc(NC(=O)Nc4ccc5c(c4)OCO5)cc3C(=O)N([C@@H](C)CO)C[C@H]2C)cc1,inactive,inactive,inactive
C[C@H](CO)N1C[C@H](C)[C@@H](CN(C)Cc2ccc(Cl)c(Cl)c2)Oc2ccc(NC(=O)CCCCCC(=O)Nc3ccccc3N)cc2CC1=O,inactive,inactive,inactive
CO[C@H](C(=O)[C@@H](O)[C@@H](C)O)[C@H]1Cc2cc3cc(O[C@H]4C[C@@H](O[C@H]5C[C@@H](O)[C@@H](O)[C@@H](C)O5)[C@@H](O)[C@@H](C)O4)c(C)c(O)c3c(O)c2C(=O)[C@@H]1O[C@H]1C[C@@H](O[C@H]2C[C@@H](O[C@H]3C[C@@](C)(O)[C@@H](O)[C@@H](C)O3)[C@@H](O)[C@@H](C)O2)[C@@H](O)[C@@H](C)O1,inactive,active,inactive
CC(C)NC(=O)N(C)C[C@H]1Oc2c(NS(=O)(=O)c3cccs3)cccc2C(=O)N([C@@H](C)CO)C[C@H]1C,inactive,inactive,inactive
C[C@@H]1CN([C@H](C)CO)C(=O)c2cc(NC(=O)Cc3ccccc3)ccc2O[C@@H](C)CCCCO[C@H]1CN(C)C(=O)Nc1ccc2c(c1)OCO2,inactive,inactive,inactive
C[C@H]1CN([C@@H](C)CO)C(=O)Cc2cc(NC(=O)c3ccncc3)ccc2O[C@H]1CN(C)Cc1ccc(-c2ccccc2)cc1,inactive,active,inactive
O=C(C[C@H]1C[C@H]2c3cc(NC(=O)C4CCOCC4)ccc3O[C@H]2[C@@H](CO)O1)NCc1ccc2c(c1)OCO2,inactive,inactive,inactive
CO[C@@H](CN(C)S(=O)(=O)c1cccc(Cl)c1)[C@H](C)CN([C@H](C)CO)S(=O)(=O)c1cccc(Cl)c1,inactive,inactive,inactive
Cc1ccc(S(=O)(=O)N(C)C[C@@H]2Oc3ccc(NC(=O)c4ccncc4)cc3CC(=O)N([C@H](C)CO)C[C@H]2C)cc1,inactive,inactive,inactive
C[C@H](CO)N1C[C@H](C)[C@@H](CN(C)S(C)(=O)=O)Oc2ccc(NS(=O)(=O)c3cn(C)cn3)cc2CC1=O,inactive,inactive,inactive
C=CC[C@@H](CC(=O)NCCO)C(=O)NCCOC(=O)[C@H](CC=C)NC(=O)OCC1c2ccccc2-c2ccccc21,inactive,inactive,inactive
CC(C)(C)NC(=O)[C@@H]1CN(Cc2cccnc2)CCN1C[C@@H](O)C[C@@H](Cc1ccccc1)C(=O)N[C@@H]1c2ccccc2C[C@@H]1O,inactive,inactive,inactive
CNCC1CCOCC1,inactive,inactive,inactive
C[C@@H]1CCCCO[C@H](CN(C)CC2CC2)[C@H](C)CN([C@@H](C)CO)C(=O)c2cc(NC(=O)C3CCCCC3)ccc2O1,inactive,inactive,inactive
COc1ccc(CN(C)C[C@@H]2OCCCC[C@H](C)Oc3ccc(NC(=O)NC4CCCCC4)cc3C(=O)N([C@H](C)CO)C[C@@H]2C)cc1,inactive,inactive,inactive
C[C@H](CO)N1C[C@H](C)[C@@H](CN(C)C(=O)Nc2ccc(F)cc2)Oc2ccc(NS(C)(=O)=O)cc2C1=O,inactive,inactive,inactive
O=C(CN1CCC2(CC1)OCCC[C@@H]2O)N1CCOCC1,inactive,inactive,inactive
COc1ccc(NC(=O)N(C)C[C@H]2Oc3c(NC(=O)CCCCCC(=O)Nc4ccccc4N)cccc3C(=O)N([C@H](C)CO)C[C@H]2C)cc1,inactive,inactive,inactive
C[C@@H]1CN([C@H](C)CO)C(=O)c2cc(NC(=O)Nc3cccc4ccccc34)ccc2O[C@@H](C)CCCCO[C@@H]1CN(C)Cc1ccncc1,inactive,inactive,inactive
CN(C)CCCNC(=O)C[C@@H]1CC[C@@H]2[C@H](COc3ccc(NC(=O)c4cccc(F)c4)cc3C(=O)N2C)O1,inactive,inactive,inactive
C[C@@H]1CN([C@H](C)CO)S(=O)(=O)c2ccc(C3=CCCCC3)cc2O[C@H]1CN(C)S(=O)(=O)c1cn(C)cn1,inactive,inactive,inactive

# From the antibiotic and cytotoxicity screens of Wong et al. (2023)
